According to article PMC10726135:
This is one part of the list. At the low end of the ranking the order means little. The protein was read in a cell extract, so binding may be indirect.

Target: T1, HNF4alpha8 (COS-7 nuclear extract) (UniProt P41235-5)
T1 sequence: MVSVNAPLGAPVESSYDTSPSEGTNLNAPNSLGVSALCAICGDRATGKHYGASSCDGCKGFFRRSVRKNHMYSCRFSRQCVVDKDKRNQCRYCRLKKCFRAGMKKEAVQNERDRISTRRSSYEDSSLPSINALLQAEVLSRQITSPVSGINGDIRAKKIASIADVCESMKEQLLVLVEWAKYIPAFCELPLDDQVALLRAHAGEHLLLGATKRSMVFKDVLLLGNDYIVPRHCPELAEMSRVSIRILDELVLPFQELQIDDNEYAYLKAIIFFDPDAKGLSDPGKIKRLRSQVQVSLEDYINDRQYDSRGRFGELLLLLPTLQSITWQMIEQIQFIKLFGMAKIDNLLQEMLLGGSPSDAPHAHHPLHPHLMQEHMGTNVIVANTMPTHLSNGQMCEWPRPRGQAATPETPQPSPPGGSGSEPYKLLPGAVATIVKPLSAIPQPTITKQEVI
Assay: protein-binding microarray
Conditions: COS-7 nuclear extract on double-stranded Agilent 4x180k PBM; binding buffer, salt, pH and temperature not given; high values mean tight binding; double strand, one strand shown; sequences stand for … in …GCCTAGGGAGATTAGAGTATCGGTCGA

Sequence | binding signal (log2 normalized intensity)
TATCATCAACATGCACTAGCAGTCCTATTT | -1.37
CCACTTTGTCCTTCACTTGTAGGAGACCTT | 2.3
AATGCGCCTGGACAGATAAGAAGGGGTCAG | 4.21
CAAGTTGCAGGGATGGACTTTAATCTCCAA | 5.83
ACCCCATTTTCCTAAAAATTATCTTTATCT | -0.86
AAAGTGGTAGCCCACAATCAGTCTGATTGG | -1.3
ATGGCGACAAGAGTGACCTCTGGTCATTCA | 4.55
TTCACAGAGCAAGGGTCCAGATTAGAGCAC | 2.52
GTTCAATGCTTCAGTGAGCCTTGACCTTCA | 4.83
AGGCGGCGGCTCCGGGAGCTGGCGGCGCGG | -1.38
TCTCTGTCCCAAGAGCAAGAAGGTCAGAGG | 2.54
TTCCAGTTTTGGAGAGGGGAACGATAAAAT | -1.07
CCTTTGCACCAGAGATAATATGCTTACTTA | 0.614
TATCCCAAGACATCAATTAACTTGTCCTTT | 2.79
CTGCTGCCCAAAGGTCACCTCTTCAGATAG | 3.89
TGTTTTGAGGGTTAAAGGAGATAATGGGTG | 1.3
AGCAGGGCTAGACTTTAACCCCCTTGTCTT | 5.52
GCAAGTCTCTTTTAGGCTGTCAGCCACCAA | -1.21
ATAGGCGCGCGTGTGTGTGTGTGTGTGGTG | 2.86
TTACTATAGGTTCTACTCTCCCCAGTTCAA | 3.19
GCCCACACTGCCCATCCCCACTGAAAGTGT | 2.97
AGGGTCTTTGCAACTGTGTGTGGCCTGCAC | 1.53
CAGAGATAAGGTAGGCACGTAAATAAGGAT | -1.32
CCTCCTCTCTGGGTCAAAGGTCATCGCACC | 8.5
TATGTCTCTCCTATTCAGGTATTTGCTCTG | 0.488

Sequence | binding signal (log2 normalized intensity)
ATGGCTCAGCCTGGCTGTGTAGACATCACC | -1.51
ATAAACCTGCCTACATCAAGAGGATTACAT | -1.24
TTCAGGACACCTTCAGGGCTGAGCCCACAG | -1.36
TGACGGACAAAGGGCTCTCTCACCAGAAAA | -1.32
CGCGGAGCGGGGGACCGAGAGCCGCCGCCG | -1.36
AAGTCCCACGGCAACCTTCCTGGAAACCTT | -1.43
GCACCCCACCAAGGACTGGACCACCTCCTC | 1.8
TTCCACTCTACCGTCCTCCCCCACGACAGA | 5.11
GGTGAAGATTGGAAATGAATTGATAAACAC | -1.25
AAGTAGGGGCTGCTGGCATCTCATTACTGA | -1.48
CATCAGCCCTCCTAGCAAACAATGAGGACG | -1.25
GTAAGCCTGGTATTAATGAGGCAAAGGTCA | 5.76
CCATTCTCAGGCAGATGGGCAGCACTGTGA | -1.19
ATGGCACCCTTTTGTCAGGAAGTTCCCACA | -0.603
GACCTCAGGGGTCATCAGATAGATGGTCAG | 3.3
CGCAATGCATAGCAGAAACATAGAAAGGAG | -1.44
GGACAAAGTTCGTGGAAAGTGGAAGAATGG | 0.952
CTCACCCTAAGCCCTGCTCAGGGAATGTGG | -1.24
TTGCATGAAGCACAAAGGTTACTTGCTCCT | 1.98
TGTTTATCTGCTGCCCTTCCCTCCACTATT | 3.14
TATGTACACTTGCCCTCTCACCAGAAGGGC | 1.18
CAGCTTGGAATGTCAGGAACAACTTCGGGA | -1.36
TTATGGAGGAATTTGGACTTTTACTCTTAG | 4.43
AAGGAAATCTCTTTTGTTTTTCTTCAAGGA | 1.02
GATGGACCAAAGGTCTTGTACAAAGGTCCT | 3.85

Sequence | binding signal (log2 normalized intensity)
AGCAGGTCAATAGGGCAGGGGGGAGATGAA | 1.78
GGCAAGTGAGGGAGCCTAGATTAGATCAGA | -1.37
TGGTCAGCTCCTGGGAGATGAGCTCTGAAC | 1.45
TAAGTTGGTTTACTTATGTCTCCAGAAACC | 0.395
GAGGGCTGCCAAAGCTCACAGATGTGGAAT | -1.21
CCCTCTCCTCCCTCGGCCGGCCCGGCAGCC | 0.527
TCCTAGCCACCATGCTCGGCTGCCTCTCCA | -1.32
GGAAGCTGGGCACAAATTGGAGAGCATCTT | -1.29
TGGTAGGGGGGTGTTATCTCTGATGCCCTT | 2.92
CAGCATGTCTTCTGACCTTTGGCAATATCT | 5.1
TCGCTGCCTGCCCCTCTGACCTCTCCTCCT | 4.32
GGTGGCTTTTGCTGACATGCTCTTGGAATG | 1.25
TTTTTCACTGCTCACAGGTTGTACTATGAC | 2.78
ACTGGTTTTTCAGATCCCTCTGGTGCTGAT | 0.981
CTCTGCAGACTGGTGCTATGTCCCTGACTG | -0.646
TTTAAAATGTTTCAAAGTTTTTCCCCTTGG | 1.75
CTTGGGGGAGGAGGGCAACCTTTGAACTGG | 6.02
CTTTGAGTCCCAATCCCCCATCTATTTACA | 2.99
GTAGGAGCGGGCTTAACTAGGAGCCTGCAC | -1.27
ATGGAGGCATCATAAACTCCAACTCAGCCC | -1.26
TCCAGAAACCAACCTTTGATCATTCCTGCA | 4.94
GGACTTGATCCATTCTACCCCTGTGGTTGA | 2.5
AAACACACCCTTGGGGCTGATGTGCACAGT | -0.869
ACACGAGCTGTGCGCTTAGTCCATGACGCA | -1.21
AGACTTAGGATCTAGCAAATTTGGGAGGGA | -1.34

Sequence | binding signal (log2 normalized intensity)
GTCAGTCTGATTGGTTGGAGAAAGCAGCCA | -0.964
ATAGCAAAAGTGACCTTTGCTCCAGTTCCC | 8.52
GAGAAGCCTGAAATGAGTTTCATTAGACAG | -1.3
TGGCTCGACAACGATTTGGGAAATGAAGGG | -1.28
GCTCACTGCACCTTGACCTCCTGGGCCCAA | 4.47
CAAAGTCAGGTCAGTAGCCCAGGGTCACAC | 3.13
ATGTCTAAGGTTTCTCAGCCCCATCCCCCA | 5.45
CAGGTTCAAAGGGCTTAATCTTTCCTGCCT | 1.84
GAATGTAAATAGCTAGGTACTTTGATCTAC | 1.92
AGATCAAGATTTTCAACTTGAGGAAGACAA | -1.36
TTGGAGATAAAGGAACAGGCCCCAGGGACT | -1.3
TCTGGCCTTTTTTTTGTGTGTGTGTCAGAG | 2.69
ATACATTTTTAGGTGGATGCCTAGGATTCT | -0.709
TTGACCAAAGTACAGTAATTTCACTGATAT | 2.03
TTTCCATTTACCTCCGCTGAACCTAGAGCT | -1.03
ATGTTCAAGAAGTTCCAAAGGCCAGTGTGG | 1.92
TAAGCTACTGAAAATGACCTTTGTTCCCTG | 9.03
TACTTAGATCAAGATTTTCAACTTGAGGAA | -1.29
AAAGTAAGGTGAAGCCCAGCAGCTCCAGGA | -1.27
TGGAAGTCGCCGTGAGGTTATTTGCAGACT | 0.17
ATCAAAGTATGAGAGCCTGAGAACACTTAT | -1.31
AGAACTCTTCGAAGACACAAAGCTTGGGTT | -1.3
GTATCTGATCTGTGTTTCCACAAACACAGA | -0.158
GGGATTACAGGCGTGAGCCACCGCGCCCCG | -1.19
GAGCACTCATTCCTATTCGGTGCTGACCTT | 3.97

Sequence | binding signal (log2 normalized intensity)
ACTGATAATTGAAAACAGAGATTGGGACTA | -1.26
CTGACATTCTCCACTTGGTGACTGTCATTT | 0.274
AGGAAGGTCTGATGGGCCAGGCAGGACAGT | -1.32
TGAACTTTGAACACCTCTTCTTTCTTCTCT | 4.71
GAGAGGCTGCTCAGTTTAAGTCAAAATATA | -0.965
CGGTCTGCCCTCTTGTCCTTCCCCTTTTGT | 3.33
AAGTAGGGAGGAGGGGAGGGGCCCATGTGG | -1.1
CCGAGGTCACTGTATGCCCGAAAGACGCGG | -1.31
TAGCATCACGAAAGGCAACATCTTGAGCCA | -1.29
TAAAACCATGCAAATTGCTGACTTTCTGTG | -1.29
CTACAATCCTCTAAAAAAATAGTTTCAACT | -1.35
TTGGGCGCCGGAACTGGTCCGGCCCGACTC | -1.35
AGGACATTTCAGCAAAGTTCAGAGAGGAAT | -1.37
ATAGAGAAGTTTTGAAACCCTGTTCTTGTA | -0.0698
CAGGTATTTGGACTTTTTGTAGTTTCAGCT | 2.16
GGGTCAAGAAGCTCTGGCGCCATCTGGTTT | -1.24
CTCCTGGCAGAGCATAGAAGTAAGAAATCA | -1.09
AATCGCCTGATTGGTCATACTTGACCCACA | 3.3
TCTTAACATCAGAAGTTGGACTTTGTACAT | 9.76
GATCTCAGGGTGGACTTTAAACATTCCCAC | 5.2
TGGTTGGATTTCTTGGCTTCTCTTGGACCT | 3.54
AGCTGACGCCCCACCCCCTCCACCCCTGCC | 6.68
TCATGGGTGACCCGTTAAGAATGAGACATT | 1.58
GACCTTGAAATGCCATGTGATCTCTAGACT | 1.88
GTAAAGGGTGACTTTCCAGAACTATCATAC | -1.22

Sequence | binding signal (log2 normalized intensity)
AAGTTACAAGATCTTTGGACTATTGTGAAG | 3.34
TCAACCTGTGAAAATTGGTACTGGACATGG | 1.33
GACCATGTGATGTGAAGAGTGTGGACTTTC | 4.87
CCTGGCTTGTAATTCAAGACTATAGACTGT | 0.744
TTATCTTGGGGCTAATGTCTCTCTGGCCGG | 0.958
TTGTTTACTCATGTGGTCCTAAGACTAACC | 0.432
CCTGTGATACAACGGTTCAAAGGACAGACT | 2.41
GCGCCCGTAATCCCAGCTTATGTTTGCAAG | -0.507
CAAGGTTTGTAACAAGTGCTTTCTTCCCTC | 0.407
TTCTAGGTAATCACCCTCTCCACCCCCATG | 5.07
TGCTTGGAATGCTATTTGCATTGACACAAC | 1.19
AGGCCAAGCAGCTGTGATGAGGCCAGCAGG | -1.21
TCTGTGTACAAAGCCCCATATTCATAGACT | 1.92
ATTACCTGGTCAGAAGAAACATGCGATACT | -1.31
GGGGAACAGGCCTCCCCCCTTCTGTTTCCA | 2.54
TAGGACAGAGCAGATGAAAGTAGTTGGGGA | -1.3
TAGGTGGTCTGTTTGTGAAACAGTGGGCAA | 0.904
TTTGAGTCATAAGAAACATTTTACAACCTA | -1.39
GGAACAAAGGTCAGTCCCGCAGTGAGGGAC | 3.02
GGCACAATGCTGCAATTCTCTTTGCCAAAG | -1.29
